Our source for the solubility values is patent US20230414771A1, “PREPARATION AND USE OF IMMUNOSTIMULATORY CONJUGATED COMPLEXES FOR TARGETED DELIVERY AND ACTIVATION” (YAFEI SHANGHAI BIOLOGY MEDICINE SCIENCE & TECHNOLOGY CO., …, priority 2020, published 2023).

The structures appear in SMILES notation. Where a SMILES comes first, the peptide text is derived from it. [ ]: non-standard residue; d: D form. The star is where a group is joined. ξ: configuration not given here. Doxorubicin(3'-N) = COc1cccc2c1C(=O)c1c(O)c3c(c(O)c1C2=O)C[C@@](O)(C(=O)CO)C[C@@H]3O[C@H]1C[C@H](N*)[C@H](O)[C@H](C)O1; Dovitinib(4-NH) = CN1CCN(c2ccc3nc(-c4c(N*)c5c(F)cccc5[nH]c4=O)[nH]c3c2)CC1; X8 = CO[C@@]12[C@@H]3N[C@@H]3CN1C1=C(C(=O)C(N*)=C(C)C1=O)[C@@H]2COC(N)=O; X5 = CN(CCNC(=O)c1cc(Oc2ccc(NC(=O)Nc3ccc(Cl)c(C(F)(F)F)c3)c(F)c2)ccn1)*; Mal(CH2CH2O)6CH2CH2CO = O=C1C=CC(=O)N1CCOCCOCCOCCOCCOCCOCCC(=O)*; MaleimidoPEG4propanoyl = O=C1C=CC(=O)N1CCOCCOCCOCCOCCC(=O)*; X4 = [NH3+][Pt-2]1([NH3+])[O]C(=O)C2(CN(*)C2)C(=O)[O]1; Hexanoyl(6-maleimido) = O=C1C=CC(=O)N1CCCCCC(=O)*; Butanoyl(4-maleimido) = O=C1C=CC(=O)N1CCCC(=O)*; Propanoyl(3-maleimido) = O=C1C=CC(=O)N1CCC(=O)*; X1 = O=C1C=CC(=O)N1CCOCCOCCOCCC(=O)*; PEG6 = NCCOCCOCCOCCOCCOCCOCCC(=O)O; X3 = O=C1C=CC(=O)N1CCOCCOCCC(=O)*; PEG4 = NCCOCCOCCOCCOCCC(=O)O; PEG3 = NCCOCCOCCOCCC(=O)O; PEG2 = NCCOCCOCCC(=O)O; ξL = CC(C)CC(N)C(=O)O

This series can be described thus: Water solubility test (observation and HPLC). Type of series: physicochemical. The note with it: thermodynamic from solid; lyophilized compound dissolved in water; checked by observation and HPLC (>95%). The procedure: The compounds prepared in accordance with the examples of the disclosure and the reference compounds C1, C2, C3 and C4 were lyophilized (−70° C.).
For orientation: solubility means the concentration that dissolves in the medium under given conditions. For `C[C@H](NC(=O)CCOCCOCCN1C(=O)C=CC1=O)C(=O)N[C@@H](C)C(=O)N[C@H](CC(N)=O)C(=O)Nc1ccc(COC(=O)OCC(=O)[C@]2(O)CCC3[C@H]4CCC5=CC(=O)C=C[C@@]5(C)C4C(=O)C[C@]32C)cc1` (some centres unmarked) [QHL-005-prednisone], the solubility is more than 10 mg/mL. To `COc1cccc2c1C(=O)c1c(O)c3c(c(O)c1C2=O)C[C@@](O)(C(=O)CO)C[C@@H]3O[C@H]1C[C@H](NC(=O)[C@H](CC(C)C)NC(=O)[C@H](CC(N)=O)NC(=O)[C@H](C)NC(=O)[C@H](C)NC(=O)CCOCCOCCNC(=O)CCCN2C(=O)C=CC2=O)[C@H](O)[C@H](C)O1` [QHL-099-DOX] ({Butanoyl(4-maleimido)-PEG2}-AANL-{Doxorubicin(3'-N)}) belongs more than 20 mg/mL; to `COc1cccc2c1C(=O)c1c(O)c3c(c(O)c1C2=O)C[C@@](O)(C(=O)CO)C[C@@H]3O[C@H]1C[C@H](NC(=O)[C@H](CC(C)C)NC(=O)[C@H](CC(N)=O)NC(=O)[C@H](C)NC(=O)[C@H](C)NC(=O)[C@H](CC(=O)O)NC(=O)CCOCCOCCOCCOCCOCCOCCN2C(=O)C=CC2=O)[C@H](O)[C@H](C)O1` [QHL-036-DOX] ({Mal(CH2CH2O)6CH2CH2CO}-DAANL-{Doxorubicin(3'-N)}), more than 30 mg/mL. The compound `COc1cccc2c1C(=O)c1c(O)c3c(c(O)c1C2=O)C[C@@](O)(C(=O)CO)C[C@@H]3O[C@H]1C[C@H](NC(=O)[C@H](CC(C)C)NC(=O)[C@H](CC(N)=O)NC(=O)[C@H](C)NC(=O)[C@H](C)NC(=O)[C@H](Cc2ccc(O)cc2)NC(=O)CCCCCN2C(=O)C=CC2=O)[C@H](O)[C@H](C)O1` [QHL-132-DOX] ({Hexanoyl(6-maleimido)}-YAANL-{Doxorubicin(3'-N)}) came in with a solubility of more than 2 mg/mL.

Turning to `CC(C)C[C@H](NC(=O)[C@H](CC(N)=O)NC(=O)[C@H](C)NC(=O)[C@H](C)NC(=O)CCOCCOCCOCCNC(=O)CCN1C(=O)C=CC1=O)C(=O)N1CC2(C1)C(=O)[O][Pt-2]([NH3+])([NH3+])[O]C2=O` [QHL-090-N-CBP] ({Propanoyl(3-maleimido)-PEG3}-AANL-X4), the solubility was more than 10 mg/mL. To `COc1cccc2c1C(=O)c1c(O)c3c(c(O)c1C2=O)C[C@@](O)(C(=O)CO)C[C@@H]3O[C@H]1C[C@H](NC(=O)[C@H](CC(C)C)NC(=O)[C@H](CC(N)=O)NC(=O)[C@H](C)NC(=O)[C@H](C)NC(=O)CCOCCOCCOCCOCCOCCOCCN2C(=O)C=CC2=O)[C@H](O)[C@H](C)O1` [QHL-012-DOX] ({Mal(CH2CH2O)6CH2CH2CO}-AANL-{Doxorubicin(3'-N)}) belongs more than 20 mg/mL. Then `CC(C)CC(NC(=O)C(CC(N)=O)NC(=O)C(C)NC(=O)C(C)NC(=O)CCOCCOCCOCCOCCNC(=O)CCN1C(=O)C=CC1=O)C(=O)N1CC2(C1)C(=O)[O][Pt-2]([NH3+])([NH3+])[O]C2=O` (centres unmarked) [QHL-093-N-CBP] ({Propanoyl(3-maleimido)-PEG4}-AANL-X4; configuration not given here), with more than 10 mg/mL. To `COc1cccc2c1C(=O)c1c(O)c3c(c(O)c1C2=O)C[C@@](O)(C(=O)CO)C[C@@H]3O[C@H]1C[C@H](NC(=O)[C@H](CC(C)C)NC(=O)[C@H](CC(N)=O)NC(=O)[C@H](C)NC(=O)[C@H](C)NC(=O)CCOCCOCCOCCN2C(=O)C=CC2=O)[C@H](O)[C@H](C)O1` [QHL-010-DOX] (X1-AANL-{Doxorubicin(3'-N)}) belongs more than 10 mg/mL; to `CC(NC(=O)CCOCCOCCOCCOCCOCCOCCNC(=O)CCCN1C(=O)C=CC1=O)C(=O)NC(C)C(=O)NC(CC(N)=O)C(=O)Nc1ccc(COC(=O)N2CC3(C2)C(=O)[O][Pt-2]([NH3+])([NH3+])[O]C3=O)cc1` (centres unmarked) [QHL-107-N-CBP], more than 10 mg/mL.

The compound `CC(C)CC(NC(=O)[C@@H](CC(N)=O)NC(=O)[C@@H](C)NC(=O)[C@@H](C)NC(=O)CCOCCOCCNC(=O)CCN1C(=O)C=CC1=O)C(=O)Nc1c(-c2nc3ccc(N4CCN(C)CC4)cc3[nH]2)c(=O)[nH]c2cccc(F)c12` (some centres unmarked) [QHL-087 - Dovitinib] ({Propanoyl(3-maleimido)-PEG2}-[dA][dA][dN][ξL]-{Dovitinib(4-NH)}) showed a solubility of more than 10 mg/mL. Then `COc1cccc2c1C(=O)c1c(O)c3c(c(O)c1C2=O)C[C@@](O)(C(=O)CO)C[C@@H]3O[C@H]1C[C@H](NC(=O)[C@H](CC(C)C)NC(=O)[C@H](CC(N)=O)NC(=O)[C@H](C)NC(=O)[C@H](C)NC(=O)[C@H](CCC(=O)O)NC(=O)CCOCCOCCOCCOCCN2C(=O)C=CC2=O)[C@H](O)[C@H](C)O1` [QHL-023-DOX] (MaleimidoPEG4propanoyl-EAANL-{Doxorubicin(3'-N)}), with more than 25 mg/mL.

The compound `COc1cccc2c1C(=O)c1c(O)c3c(c(O)c1C2=O)C[C@@](O)(C(=O)CO)C[C@@H]3O[C@H]1C[C@H](NC(=O)[C@H](CC(C)C)NC(=O)[C@H](CC(N)=O)NC(=O)[C@H](C)NC(=O)[C@H](C)NC(=O)[C@H](CCC(=O)O)NC(=O)CCOCCOCCNC(=O)CCCN2C(=O)C=CC2=O)[C@H](O)[C@H](C)O1` [QHL-063-DOX] ({Butanoyl(4-maleimido)-PEG2}-EAANL-{Doxorubicin(3'-N)}) displayed a solubility of more than 15 mg/mL.

In the case of `CC(NC(=O)CCOCCOCCOCCOCCNC(=O)CCCCN1C(=O)C=CC1=O)C(=O)NC(C)C(=O)NC(CC(N)=O)C(=O)Nc1ccc(COC(=O)N2CC3(C2)C(=O)[O][Pt-2]([NH3+])([NH3+])[O]C3=O)cc1` (centres unmarked) [QHL-104-N-CBP], the solubility was more than 20 mg/mL. To `C[C@H](NC(=O)CCOCCOCCOCCOCCOCCOCCOCCOCCOCCOCCOCCOCCN1C(=O)C=CC1=O)C(=O)N[C@@H](C)C(=O)NC(CC(N)=O)C(=O)Nc1ccc(COC(=O)OCC(=O)[C@]2(O)CCC3[C@H]4CCC5=CC(=O)C=C[C@@]5(C)C4C(=O)C[C@]32C)cc1` (some centres unmarked) [QHL-147-prednisone] belongs more than 10 mg/mL; to `COc1cccc2c1C(=O)c1c(O)c3c(c(O)c1C2=O)C[C@@](O)(C(=O)CO)C[C@@H]3O[C@H]1C[C@H](NC(=O)[C@H](CC(C)C)NC(=O)[C@H](CC(N)=O)NC(=O)[C@H](C)NC(=O)[C@H](C)NC(=O)[C@H](CC(=O)O)NC(=O)CCOCCOCCN2C(=O)C=CC2=O)[C@H](O)[C@H](C)O1` [QHL-033-DOX] (X3-DAANL-{Doxorubicin(3'-N)}), more than 20 mg/mL; to `COc1cccc2c1C(=O)c1c(O)c3c(c(O)c1C2=O)C[C@@](O)(C(=O)CO)C[C@@H]3O[C@H]1C[C@H](NC(=O)[C@H](CC(C)C)NC(=O)[C@H](CC(N)=O)NC(=O)[C@H](C)NC(=O)[C@H](C)NC(=O)CCOCCOCCOCCNC(=O)CCN2C(=O)C=CC2=O)[C@H](O)[C@H](C)O1` [QHL-090-DOX], more than 10 mg/mL. To `C[C@@H](NC(=O)CCOCCOCCOCCNC(=O)CCN1C(=O)C=CC1=O)C(=O)N[C@H](C)C(=O)N[C@H](CC(N)=O)C(=O)Nc1ccc(COC(=O)N(C)CCNC(=O)c2cc(Oc3ccc(NC(=O)Nc4ccc(Cl)c(C(F)(F)F)c4)c(F)c3)ccn2)cc1` [QHL-089-compound b] belongs more than 20 mg/mL; to `C[C@@H](NC(=O)CCOCCOCCOCCNC(=O)CCN1C(=O)C=CC1=O)C(=O)N[C@H](C)C(=O)N[C@H](CC(N)=O)C(=O)Nc1ccc(COC(=O)N(C)CCNC(=O)c2cc(Oc3ccc(NC(=O)Nc4ccc(Cl)c(C(F)(F)F)c4)cc3)ccn2)cc1` [QHL-089-compound a], more than 20 mg/mL; to `CO[C@@]12[C@@H]3N[C@@H]3CN1C1=C(C(=O)C(NC(=O)C(CC(C)C)NC(=O)[C@@H](CC(N)=O)NC(=O)[C@@H](C)NC(=O)[C@@H](C)NC(=O)CCOCCOCCNC(=O)CCN3C(=O)C=CC3=O)=C(C)C1=O)[C@@H]2COC(N)=O` (some centres unmarked) [QHL-087-mitomycin] ({Propanoyl(3-maleimido)-PEG2}-[dA][dA][dN][ξL]-X8), more than 10 mg/mL. To `C[C@@H](NC(=O)CCOCCOCCNC(=O)CCN1C(=O)C=CC1=O)C(=O)N[C@H](C)C(=O)N[C@H](CC(N)=O)C(=O)Nc1ccc(COC(=O)N(C)CCNC(=O)c2cc(Oc3ccc(NC(=O)Nc4ccc(Cl)c(C(F)(F)F)c4)cc3)ccn2)cc1` [QHL-086-compound a] belongs more than 20 mg/mL; to `COc1cccc2c1C(=O)c1c(O)c3c(c(O)c1C2=O)C[C@@](O)(C(=O)CO)C[C@@H]3O[C@H]1C[C@H](NC(=O)[C@H](CC(C)C)NC(=O)[C@H](CC(N)=O)NC(=O)[C@H](C)NC(=O)[C@H](C)NC(=O)[C@H](CC(=O)O)NC(=O)CCOCCOCCOCCNC(=O)CCN2C(=O)C=CC2=O)[C@H](O)[C@H](C)O1` [QHL-048-DOX] ({Propanoyl(3-maleimido)-PEG3}-DAANL-{Doxorubicin(3'-N)}), more than 20 mg/mL. Turning to `CC(C)CC(NC(=O)[C@@H](CC(N)=O)NC(=O)[C@@H](C)NC(=O)[C@@H](C)NC(=O)CCOCCOCCNC(=O)CCN1C(=O)C=CC1=O)C(=O)N(C)CCNC(=O)c1cc(Oc2ccc(NC(=O)Nc3ccc(Cl)c(C(F)(F)F)c3)c(F)c2)ccn1` (some centres unmarked) [QHL-087-compound b] ({Propanoyl(3-maleimido)-PEG2}-[dA][dA][dN][ξL]-X5), the solubility is more than 10 mg/mL.

In turn, `C[C@H](NC(=O)CCOCCOCCOCCN1C(=O)C=CC1=O)C(=O)N[C@@H](C)C(=O)NC(CC(N)=O)C(=O)Nc1ccc(COC(=O)OCC(=O)[C@@]2(O)CCC3[C@H]4CCC5=CC(=O)C=C[C@@]5(C)C4C(=O)C[C@]32C)cc1` (some centres unmarked) [QHL-006-prednisone] returned a solubility of more than 10 mg/mL.

As to `CC(C)C[C@H](NC(=O)[C@H](CC(N)=O)NC(=O)[C@H](C)NC(=O)[C@H](C)NC(=O)CCOCCOCCOCCOCCOCCOCCNC(=O)CCCN1C(=O)C=CC1=O)C(=O)N1CC2(C1)C(=O)[O][Pt-2]([NH3+])([NH3+])[O]C2=O` [QHL-108-N-CBP] ({Butanoyl(4-maleimido)-PEG6}-AANL-X4), the solubility is more than 10 mg/mL. Then `CC(NC(=O)CCOCCOCCNC(=O)CCN1C(=O)C=CC1=O)C(=O)NC(C)C(=O)NC(CC(N)=O)C(=O)Nc1ccc(COC(=O)N2CC3(C2)C(=O)[O][Pt-2]([NH3+])([NH3+])[O]C3=O)cc1` (centres unmarked) [QHL-086-N-CBP], with more than 20 mg/mL; and `COc1cccc2c1C(=O)c1c(O)c3c(c(O)c1C2=O)C[C@@](O)(C(=O)CO)C[C@@H]3O[C@H]1C[C@H](NC(=O)[C@H](CC(C)C)NC(=O)[C@H](CC(N)=O)NC(=O)[C@H](C)NC(=O)[C@H](C)NC(=O)CCOCCOCCOCCOCCOCCOCCNC(=O)CCN2C(=O)C=CC2=O)[C@H](O)[C@H](C)O1` [QHL-096-DOX] ({Propanoyl(3-maleimido)-PEG6}-AANL-{Doxorubicin(3'-N)}), with more than 20 mg/mL.
